Assay results from ChEMBL document CHEMBL4888484, “Replenishing the malaria drug discovery pipeline: Screening and hit evaluation of the MMV Hit Generation Library 1 (HGL1) against asexual blood stage Plasmodium falciparum ,using a nano luciferase reporter read-out” (2022).
In all, about 150,000 compounds went through this assay and about 540 (0.36%) showed an effect of 50% or more. This is one part of the list.

system: Plasmodium falciparum; test: Primary screen in NF54 nanoGlo assay, in single point, at 2uM, 72h; a lower Z score goes with more inhibition; assay type: functional, Erythrocyte; conditions: timepoint 72 hour

| SMILES | % Inhibition [%] | Z score |
| --- | --- | --- |
| CCN1C(=O)NC(=O)C12CCN(C(=O)CCCOc1ccccc1)CC2 | -6 | 1.22 |
| CN1CCC(N(C)Cc2ccc(Br)o2)CC1 | -6 | 1.15 |
| Fc1ccc(CNCc2nnc3n2CCC3)cc1Br | -9 | 0.96 |
| CC1(C)Cc2cccc(N3C(N)=NC(N)=NC3(C)C)c2O1 | 3 | -0.46 |
| Cc1ccc(N2CCOCC2)c(NC(=O)C2CCCCC2)c1 | -1 | 0.12 |
| Fc1ccc(-c2nc3c(Br)c(-c4ccccc4)nn3cc2CCN2CCOCC2)cc1 | -7 | 0.98 |
| Cc1nc(C(=O)N2CCOC3CCCCC32)ccc1C#N (stereo not drawn) | -3 | 0.44 |
| O=C(Nc1ccc2c(c1)OCCCO2)C1CCCCC1 | -1 | 0.25 |
| CN(CC1CCC1)[C@H]1CCCN(Cc2ccc(F)cc2F)C1=O | -7 | 0.97 |
| Cc1nn(CC(C)C)c(Cl)c1CNc1cnn(CC(=O)NCCO)c1 | -6 | 0.58 |
| COc1cc2c(cc1C(=O)N1C[C@@H]3CC[C@H]1CN(C(C)=O)C3)CCC2 | 2 | -0.25 |
| CCc1ccc(-c2ccc(NC3CCCCC3)nn2)cc1S(N)(=O)=O | -29 | 2.71 |
| COc1ccc(N2C3=[N+](CCCCC3)C[C@]2(O)c2ccccc2)cc1 | -4 | 0.68 |
| Cc1cc(=O)c(C(=O)NCC2CCN(C(=O)c3ccoc3)CC2)cn1C | -11 | 1.36 |
| CN(C(=O)OC(C)(C)C)c1ccc(C(=N)N)cc1 | 1 | -0.2 |
| Cc1cccc([C@H]2c3cc(OCc4nc(C(=O)N(C)C(C)C)co4)ccc3CCN2C(=O)c2ccco2)c1 | 6 | -0.77 |
| CCN(CC)C(=O)C1=CC(c2cccs2)=NS(=O)(=O)N1C | -6 | 1.16 |
| Cc1ccc(C)c(Nc2nc3nonc3nc2Nc2c(C)n(C)n(-c3ccccc3)c2=O)c1 | -5 | 0.89 |
| COC[C@H](C)NC(=O)c1ccc(S(=O)(=O)N2CCN[C@H](C)C2)cc1 | -10 | 2.02 |
| Cn1cc(C(=O)N2CCC[C@H](c3nccn3CC3CCC3)C2)ccc1=O | 1 | -0.11 |
| COc1ccc(Cc2n[nH]c([C@H](C)N3CCN(C)CC3)n2)cc1OC | -6 | 1.05 |
| CCc1ccc(CN(C)[C@H]2CN(C3Cc4ccccc4C3)C[C@@H]2O)nc1 | -9 | 1.58 |
| CCn1c(=O)c2ccn(CC(=O)Nc3ccc(F)cc3)c2n(CC)c1=O | -31 | 3.16 |
| Cc1nc2cc(NC(=O)[C@H]3CC3(Cl)Cl)ccc2o1 | -1 | 0.14 |
| CCN(CC)S(=O)(=O)NC1CC2CCC1(C)C2(C)C (stereo not drawn) | -10 | 1.31 |
| O=C(NCC(=O)N1CCN(c2ccccc2)CC1)C1CCCCC1 | 9 | -1.17 |
| CN1CC[C@H](C(=O)N2CC3(CCCCC3)C2)C1 | 1 | -0.14 |

| SMILES | % Inhibition [%] | Z score |
| --- | --- | --- |
| CCc1nnc(-c2cc(C)n(CC(=O)NCc3ccc(OC)cc3)c2C)o1 | -12 | 2.31 |
| CO[C@H]1CCN(c2ccc(NC(=O)C3CCN(C(C)=O)CC3)cc2)C1 | -11 | 1.41 |
| O=C(NCC(F)(F)c1ccc(F)cc1)Nc1ncc(C2CCOCC2)s1 | -7 | 0.71 |
| Cn1cc(CNC(=O)c2ccc3oc(-c4cccc(F)c4)nc3c2)cn1 | -11 | 1.49 |
| CN1CCCN(C(=O)c2cncc(-c3ccc4c(c3)CCO4)c2)CC1 | -9 | 0.88 |
| O=C(N[C@H]1CCS(=O)(=O)C1)c1occc1-c1ccccc1 | 10 | -1.82 |
| CC(C)(C)[C@@](C)(C#N)NC(=O)C1CN(C(=O)C2CCCCC2)C1 | -3 | 0.41 |
| CCC(=O)N[C@@H](C)COc1ccccc1OC | -10 | 1.1 |
| CC(NC(=O)C1CC(=O)N(C)C1)c1cccs1 (stereo not drawn) | -18 | 1.83 |
| Cc1nc(N(C)Cc2nc3ccccc3s2)c2nc(C)oc2n1 | -3 | 0.36 |
| CCc1cc(O)ccc1NC(=O)C1CCOC1C (stereo not drawn) | -2 | 0.14 |
| O=C(CN1CCOCC1)NCCCC[C@H]1CCCO1 | -13 | 1.85 |
| COc1ccc(CCc2nc(CC(N)=O)nn2CCO)cc1 | -23 | 2.28 |
| Cc1cc(Br)ccc1CC(=O)NCCNC(=O)N(C)C | -9 | 0.91 |
| CCOC1CN(C(=O)NC[C@H]2CC(=O)N(CCOC)[C@@H]2c2cnn(C)c2C)C1 | 1 | -0.14 |
| CN(C)C(=O)CCNC(=O)NOCc1ccccc1 | -1 | 0.25 |
| O=C(NC[C@H]1OC[C@@H](N(Cc2ccc(F)cc2)Cc2ccc(F)cc2)[C@@H]1O)c1ccccc1 | 10 | -1.2 |
| COc1ccc(C(=O)N(CC(=O)Nc2nc(-c3ccc(Cl)cc3)cn2-c2cccc(OC)c2)CC(C)C)cc1 | 8 | -1.57 |
| O=C(c1cnc(O)c(Cl)c1)N1CC[C@H](Oc2cnc3ccccc3n2)C1 | -1 | 0.24 |
| O[C@@H]1C[C@@H](c2nc(C3CC3)no2)N(C2CCOCC2)C1 | -8 | 1.01 |
| CCN1CCN([C@@H](c2nnc(-c3ccccc3)o2)c2ccccc2F)CC1 | -15 | 1.64 |
| O=c1[nH]c(-c2cccnc2)nc2ccc(-c3ccccc3)cc12 | -6 | 0.83 |
| Cn1nccc1[C@@H]1CN(C(=O)c2ccc3c(c2)-c2ccccc2C3)C[C@H]1N | -8 | 1.16 |
| COC[C@@H]1CN(S(=O)(=O)c2ccc3c(c2)CCCC3)C[C@H]1C(N)=O | -5 | 0.75 |
| Cc1sc(-c2nnc(C(C)C)o2)cc1NC(=O)c1ccccc1 | -11 | 1.03 |
| CCN(CC(=O)Nc1ccc2c(c1)OCCO2)C(=O)C1=COCCO1 | 0 | 0.04 |
| O=C1OC2CC1N(C(=O)Cc1ccccc1Cl)C2 (stereo not drawn) | -3 | 0.47 |
